Test results reported in patent US20230416360A1 (SIMCERE ZAIMING PHARMACEUTICAL, published 2023).

Tests used:
[1] = target: T1, murine CD22-ECD-His (mouse, UniProt P35329 22-708); assay: ELISA, coated mouse CD22, antibody 100 nM
T1 construct: extracellular domain; Bought; also called mouse CD22; murine CD22 protein
T1 sequence (looked up): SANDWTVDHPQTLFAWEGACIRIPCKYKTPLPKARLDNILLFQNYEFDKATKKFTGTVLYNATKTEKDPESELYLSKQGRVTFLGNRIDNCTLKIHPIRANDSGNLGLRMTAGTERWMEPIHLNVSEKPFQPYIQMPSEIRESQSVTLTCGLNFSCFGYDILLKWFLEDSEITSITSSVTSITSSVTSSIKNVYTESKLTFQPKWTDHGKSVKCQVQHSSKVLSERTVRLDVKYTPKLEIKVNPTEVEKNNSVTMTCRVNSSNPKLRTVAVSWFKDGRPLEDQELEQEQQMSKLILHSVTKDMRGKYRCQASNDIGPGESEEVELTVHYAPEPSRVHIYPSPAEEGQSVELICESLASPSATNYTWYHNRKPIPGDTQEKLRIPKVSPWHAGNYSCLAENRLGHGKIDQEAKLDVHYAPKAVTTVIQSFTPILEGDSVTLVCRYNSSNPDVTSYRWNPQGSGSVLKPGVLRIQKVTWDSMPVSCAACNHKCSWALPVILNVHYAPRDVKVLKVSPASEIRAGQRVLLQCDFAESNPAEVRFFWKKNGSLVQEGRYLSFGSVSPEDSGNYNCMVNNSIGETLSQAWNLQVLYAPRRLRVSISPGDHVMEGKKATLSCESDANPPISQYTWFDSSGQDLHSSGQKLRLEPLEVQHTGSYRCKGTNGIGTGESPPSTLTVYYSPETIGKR
Protocol: (§1) The plate was sealed with plastic film and incubated overnight at 4° C., the plate was washed 2 times with PBS the next day, and then a blocking solution [PBS+2% (w/w) BSA] was added for blocking at room temperature for 2 hours. […] After incubation at 37° C. for 2 hours, the plate was washed 3 times with PBS. HRP (horseradish peroxidase)-labeled secondary antibody (purchased from Sigma, catalog number: A0170) was added, and incubated at 37° C. for 2 hours, and the plate was washed 5 times with PBS. TMB substrate was added at 50 μl/well, and incubated at room temperature for 30 minutes, then a stop solution (1.0 N HCl) was added at 50 μl/well.

[2] = target: T2, human CD22 (full length, on cells) (human, UniProt P20273 20-847); assay: FACS, Raji cells
T2 construct: Raji cells carry endogenous human CD22; also called CHO-K1-human CD22 2C4; CHO-K1-human CD22 1G5
T2 sequence: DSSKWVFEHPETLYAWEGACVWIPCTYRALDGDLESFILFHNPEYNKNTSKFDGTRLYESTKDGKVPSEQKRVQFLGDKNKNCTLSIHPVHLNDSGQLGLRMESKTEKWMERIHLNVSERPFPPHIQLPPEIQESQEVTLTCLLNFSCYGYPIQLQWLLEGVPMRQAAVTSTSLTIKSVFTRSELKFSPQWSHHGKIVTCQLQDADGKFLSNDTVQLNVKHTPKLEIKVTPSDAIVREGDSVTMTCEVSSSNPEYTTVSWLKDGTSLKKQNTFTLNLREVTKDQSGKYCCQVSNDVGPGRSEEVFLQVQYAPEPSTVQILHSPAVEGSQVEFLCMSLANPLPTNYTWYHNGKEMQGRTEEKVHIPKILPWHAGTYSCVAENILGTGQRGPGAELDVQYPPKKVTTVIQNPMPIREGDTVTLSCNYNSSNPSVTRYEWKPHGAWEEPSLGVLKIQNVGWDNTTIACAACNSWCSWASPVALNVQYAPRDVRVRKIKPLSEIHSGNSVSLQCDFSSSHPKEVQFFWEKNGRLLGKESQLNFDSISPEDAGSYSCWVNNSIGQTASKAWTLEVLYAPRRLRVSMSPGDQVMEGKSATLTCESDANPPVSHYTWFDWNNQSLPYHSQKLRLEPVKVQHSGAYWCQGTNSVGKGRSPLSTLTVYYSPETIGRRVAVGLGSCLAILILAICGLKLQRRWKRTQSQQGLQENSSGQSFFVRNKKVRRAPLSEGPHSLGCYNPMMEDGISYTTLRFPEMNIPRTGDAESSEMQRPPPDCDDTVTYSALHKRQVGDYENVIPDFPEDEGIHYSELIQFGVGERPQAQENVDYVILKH
Excerpt: The required cells were scale-up cultured in a T-75 cell culture flask to the logarithmic growth phase. For the adherent cell CHO-K1, the medium was aspirated, the cells were washed 2 times with PBS buffer, and then digested with trypsin. After the digestion was terminated, the cells were washed 2 times with PBS buffer. For suspension cell Raji, the medium supernatant was directly centrifuged and discarded, and the cell pellet was washed 2 times with PBS. […] The mixture was centrifuged and washed 3 times with PBS buffer, Alexa Flour 488-labeled secondary antibody (purchased from Invitrogen, catalog number: A-11013) was added at 50 μl/well, and incubated on ice for 1 hour. The obtained mixture was centrifuged and washed 5 times with PBS, and FACS (FACS Canto™, purchased from BD Company) was used for detection and result analysis. Data analysis was performed by software (CellQuest) to obtain the mean fluorescence density (MFI) of the cells. And then software (GraphPad Prism8) was used for analysis, data fitting, and EC50 value calculation.

[3] = target: T3, human CD22-ECD-His (human, UniProt P20273 20-687); assay: ELISA, coated hCD22-ECD-His, antibody 0.001 nM
T3 construct: Made in HEK293E, purified on nickel column; also called hCD22-ECD-His; recombinant human CD22-ECD His; not shown: His tag
T3 sequence: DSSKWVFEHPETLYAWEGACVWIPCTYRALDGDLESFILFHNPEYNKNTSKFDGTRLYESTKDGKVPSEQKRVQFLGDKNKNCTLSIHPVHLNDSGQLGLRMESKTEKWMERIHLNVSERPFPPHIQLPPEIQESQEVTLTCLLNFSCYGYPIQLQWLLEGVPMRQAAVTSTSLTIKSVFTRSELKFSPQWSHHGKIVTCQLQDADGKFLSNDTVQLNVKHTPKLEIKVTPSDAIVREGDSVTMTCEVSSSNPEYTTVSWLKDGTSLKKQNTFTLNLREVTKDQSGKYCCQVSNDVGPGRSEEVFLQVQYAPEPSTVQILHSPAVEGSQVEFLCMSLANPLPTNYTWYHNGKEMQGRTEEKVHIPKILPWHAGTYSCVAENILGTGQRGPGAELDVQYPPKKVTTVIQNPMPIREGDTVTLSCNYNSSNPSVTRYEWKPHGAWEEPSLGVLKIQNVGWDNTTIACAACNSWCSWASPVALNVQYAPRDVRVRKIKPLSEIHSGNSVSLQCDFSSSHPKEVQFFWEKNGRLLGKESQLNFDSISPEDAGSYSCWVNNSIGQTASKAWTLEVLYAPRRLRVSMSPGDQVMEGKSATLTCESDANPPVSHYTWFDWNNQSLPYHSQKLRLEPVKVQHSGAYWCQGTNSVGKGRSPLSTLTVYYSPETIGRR
Protocol: as §1

B1: S002-NB151-66 VHH-Fc (Fc fusion)
chain: QVQLVESGGGLVQAGGSLRLACAASGDTVSIYYMGWFRQAPGKEREFVGALSASGQFTDHADSVKGRFTISRDDAQNTVFLHMNDLKPEDTAVYYCAVQRYGWVYRTDKTMYNYWGQGTQVTVSS[human IgG1 Fc with changes cut from this listing]
notes: VHH cloned into vector BI3.4-huIgG1 (hinge and human IgG1 Fc), made in HEK293E
OD450 [1]: 0.14
EC50 [2]: 0.48 nM
Max MFI [2]: 2310
OD450 [3]: 0.26

B2: S002-NB151-82 VHH-Fc (Fc fusion)
chain: EVQVVESGGGLVQAGDSLRLSCTTSGRTFYGDYIAWFRQAPGKEREFVAAIAVRGRGTFYGDSVKGRFTISRDNAENTLSLQMNSLKPEDTAVYYCAADAGSYASRGFPVRETGRYDYWGQGTQVTVSS[human IgG1 Fc with changes cut from this listing]
notes: VHH cloned into vector BI3.4-huIgG1 (hinge and human IgG1 Fc), made in HEK293E; also called 5002-NB151-82
OD450 [1]: 0.12
EC50 [2]: 0.31 nM
Max MFI [2]: 2170
OD450 [3]: 0.23

B3: S002-NB150-2 VHH-Fc (Fc fusion)
chain: QVQLVESGGGLVQPGGSLRLSCAASGSWFNIAMGWFRQAPGKEREFVAGIRWSDSKTYYADSVKGRFTISGDNAKNTTYLQMNSLKPEDTAVYYCAAQRYYRGSYNRQTNYDHWGQGTQVTVSS[human IgG1 Fc with changes cut from this listing]
notes: VHH cloned into vector BI3.4-huIgG1 (hinge and human IgG1 Fc), made in HEK293E; also called 5002-NB150-2
OD450 [1]: 0.09
EC50 [2]: 0.25 nM
Max MFI [2]: 4110
OD450 [3]: 0.44

B4: S002-NB150-5 VHH-Fc (Fc fusion)
chain: QLQLVESGGGLVQAGGSLRLSCVGSGDRVSIALMGWFRQAPGKEREFVAAISPSGGRITYSDSVKGRFTISRDNAKNTVYLQMNSLKRDDTAVYVCAANFRGYLSSSRGSDYAYWGQGTQVTVSS[human IgG1 Fc with changes cut from this listing]
notes: VHH cloned into vector BI3.4-huIgG1 (hinge and human IgG1 Fc), made in HEK293E; also called 5002-NB150-5
OD450 [1]: 0.13
EC50 [2]: 0.17 nM
Max MFI [2]: 4620
OD450 [3]: 0.46

B5: S002-NB150-40 VHH-Fc (Fc fusion)
chain: QVQLVESGGGLVQDGGSLRLSCAASGLTFSFYNMGWFRQAPGKEREFVAAISQSGLSTHYADSMKGRFTISRDNAKNTVYLQMNSLNPVDTAAYYCAAGRRGYLASTTNDYEYWGQGTQVTVSS[human IgG1 Fc with changes cut from this listing]
notes: VHH cloned into vector BI3.4-huIgG1 (hinge and human IgG1 Fc), made in HEK293E; also called 5002-NB150-40
OD450 [1]: 0.06
EC50 [2]: 0.36 nM
Max MFI [2]: 4070
OD450 [3]: 0.25

B6: S002-NB150-42 VHH-Fc (Fc fusion)
chain: QVQLVESGGGLVQAGDSLKLSCLASGITFSSYYMSWFRQAPGKEREFVAGVGRSGAPSHHADSVKGRFTISRDNAKSAVYLQMNSLQPEDTAVYFCAAKWMAASTTVADYWGQGTQVTVSS[human IgG1 Fc with changes cut from this listing]
notes: VHH cloned into vector BI3.4-huIgG1 (hinge and human IgG1 Fc), made in HEK293E; also called 5002-NB150-42
OD450 [1]: 0.07
EC50 [2]: 0.2 nM
Max MFI [2]: 4460
OD450 [3]: 0.28

B7: S002-NB150-57 VHH-Fc (Fc fusion)
chain: QVQLVESGGGLVQAGDSLRLSCAVTGRAYSRSDMGWFRQAPGKEREIVAVITFGGGTDYADSVKGRFTISSEDTKNTLYLQMNSLQPEDTAVYYCAAGFRGSRWSTAARRKEDDYAFWGQGTQVTVSS[human IgG1 Fc with changes cut from this listing]
notes: VHH cloned into vector BI3.4-huIgG1 (hinge and human IgG1 Fc), made in HEK293E; also called 5002-NB150-57
OD450 [1]: 0.07
EC50 [2]: 0.17 nM
Max MFI [2]: 4660
OD450 [3]: 0.3

B8: S002-NB151-36 VHH-Fc (Fc fusion)
chain: QVQLVESGGGLVQAGGSLRLSCAASGLTFSYYGMGWFRQAPGKEREFVAAINWSGTSTYYADSVKDRFTVSRDNAKNTAYLHMNNLKPEDTAVYYCAARKYSSSQAMGLPNDIDYWGQGTQVTVSS[human IgG1 Fc with changes cut from this listing]
notes: VHH cloned into vector BI3.4-huIgG1 (hinge and human IgG1 Fc), made in HEK293E; also called 5002-NB151-36
OD450 [1]: 0.07
EC50 [2]: 0.41 nM
Max MFI [2]: 4760
OD450 [3]: 0.24

B9: S002-NB151-64 VHH-Fc (Fc fusion)
chain: QVQLVESGGGLVQPGGSLTLSCAASGFDFSFYTMTWVRQAQGKGLEWVSTISTGGGGSNYADSVKGRFTISRDNAKKTLYLQMTSLKPEDTAVYYCASHRRGYMFVSSRKNEYDYWGRGTQVTVSS[human IgG1 Fc with changes cut from this listing]
notes: VHH cloned into vector BI3.4-huIgG1 (hinge and human IgG1 Fc), made in HEK293E; also called 5002-NB151-64
OD450 [1]: 0.1
EC50 [2]: 0.26 nM
Max MFI [2]: 4690
OD450 [3]: 0.35

B10: S002-NB150-152n VHH-Fc (Fc fusion)
chain: EVQVVESGGGLVQTGGSLRLSCAASGRPFDWLTVGWFRQAPGKEREFVAAISQSGGRIFYSDSVKGRFTISRDNAKNTAFLQMNSLKPEDTAVYSCAAQMRGYSRAAYPDEYDYWGQGTQVTVSS[human IgG1 Fc with changes cut from this listing]
notes: as for B1
OD450 [1]: 0.1
EC50 [2]: 0.12 nM
Max MFI [2]: 2110
OD450 [3]: 0.29

B11: S002-NB151-14 VHH-Fc (Fc fusion)
chain: QVQLVESGGGLVQAGGSLRLSCTTSGGTLSRITMGWFRQAPGKEREFVAAIKWGGSSTPYSDSVKGRFTISRDNAKNTVYLQMDRLVPEDTAVYYCAGGLRGPYSDSVTSSVQYNYWGQGTQVTVSS[human IgG1 Fc with changes cut from this listing]
notes: VHH cloned into vector BI3.4-huIgG1 (hinge and human IgG1 Fc), made in HEK293E; also called 5002-NB151-14
OD450 [1]: 0.15
EC50 [2]: 1.03 nM
Max MFI [2]: 2370
OD450 [3]: 0.33
